Assay results as given in PubChem BioAssay AID602292 (National Center for Advancing Translational Sciences (NCATS), 2012).
The campaign covered roughly 1,300 compounds. About 380 (29%) were called active. This list was built around the results that the source calls inconclusive (neither active nor inactive); the mix of calls is not that of the screen. Calls follow the shape of the dose curve; as a rule, active = well fitted inhibition curve with a large enough effect; inconclusive = small, poorly fitted or top-dose-only effect; inactive = flat fitted curve, though single readings scatter. Potencies of inconclusive entries are left out as doubtful fits.

target: Thyrotropin receptor (Homo sapiens) (UniProt P16473); experiment: qHTS for antagonists of the Thyroid Stimulation Hormone Receptor: Hit Validation in Primary Screen; conditions: TSHR-expressing cells, cAMP antagonist mode; activity change, negative = inhibition: at the top concentration; also: nearly all actives have a fitted effect of over 80% in size;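 as to activity change, negative = inhibition: cAMP by competitive HTRF where cellular cAMP lowers the 665 nm FRET signal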
Chain of UniProt P16473 (P16473 whole entry, looked up): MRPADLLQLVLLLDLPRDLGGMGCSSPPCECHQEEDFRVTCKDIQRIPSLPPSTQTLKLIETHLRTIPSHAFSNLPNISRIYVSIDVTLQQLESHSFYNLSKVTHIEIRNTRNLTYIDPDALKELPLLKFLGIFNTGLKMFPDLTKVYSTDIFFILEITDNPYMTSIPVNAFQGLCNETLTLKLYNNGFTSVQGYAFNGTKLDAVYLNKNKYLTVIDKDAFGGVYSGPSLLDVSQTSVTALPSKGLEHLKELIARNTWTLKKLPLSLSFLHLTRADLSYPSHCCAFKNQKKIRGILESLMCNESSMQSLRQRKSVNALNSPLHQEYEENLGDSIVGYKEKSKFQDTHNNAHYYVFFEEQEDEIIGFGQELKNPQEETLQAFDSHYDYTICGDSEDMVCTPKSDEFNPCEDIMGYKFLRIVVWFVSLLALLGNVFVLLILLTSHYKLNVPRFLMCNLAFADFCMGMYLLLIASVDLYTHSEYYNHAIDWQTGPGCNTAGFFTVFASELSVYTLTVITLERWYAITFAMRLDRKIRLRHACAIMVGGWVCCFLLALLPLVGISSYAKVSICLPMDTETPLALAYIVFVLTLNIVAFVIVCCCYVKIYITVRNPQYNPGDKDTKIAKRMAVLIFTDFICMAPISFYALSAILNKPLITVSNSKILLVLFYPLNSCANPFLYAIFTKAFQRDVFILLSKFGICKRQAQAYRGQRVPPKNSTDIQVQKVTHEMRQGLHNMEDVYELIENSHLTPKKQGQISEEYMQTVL
Summary of the method: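 TSHR-expressing cells were pretreated with compound, then stimulated with TSH at EC80 (4nM final) for 2 hours at 37 deg C. Cellular cAMP measured by competitive HTRF (anti-cAMP cryptate, cAMP-d2) after 30 min at room temperature.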
% is scaled to controls: 0 for no effect and ±100 for the full control effect; potency is read from the fitted curve at half-maximal effect; tags tell the direction and shape of the fitted curve.

| Structure (SMILES) | Potency | activity change, negative = inhibition |
| --- | --- | --- |
| O=S1(=O)C=C(Sc2nc3cc(Cl)ccc3o2)c2ccccc21 | inconclusive [inhibitor, partial curve] | – |
| COC(=O)c1ccc(NC(=O)c2nc(S(=O)(=O)Cc3cccc(C)c3)ncc2Cl)cc1 | inconclusive [inhibitor, partial curve] | – |
| CN(Cc1ccco1)S(=O)(=O)c1csc(C(N)=O)c1 | – | inactive: -3.34% |
| C=CCSc1nsc(NC(=O)Nc2ccc(F)cc2)n1 | active: 7.57 µM | – |
| COc1ccccc1N1C(=O)c2cccc3c(Cl)ccc(c23)C1=O | inconclusive [inhibitor, partial curve, poor fit] | – |
| O=C(c1cccs1)c1ccc(-c2cccs2)s1 | inconclusive [inhibitor, partial curve] | – |
| O=C(Nc1nnc(SCc2ccc(Cl)cc2Cl)s1)C1COc2ccccc2O1 (stereo unspecified) | inconclusive [inhibitor, partial curve] | – |
| Cc1ccccc1C(=O)N1CCN(c2ccc(NC(=S)NC(=O)c3ccco3)cc2)CC1 | active: 21.3 µM | – |
| Cc1ccccc1C(=O)N1CCN(c2ccc(NC(=O)CSc3ccc(Cl)cc3)cc2)CC1 | inconclusive [inhibitor, partial curve] | – |
| Cc1cccc(OCCCCc2c(C)n[nH]c2C)c1C | active: 30.1 µM | – |
| O=C(CCC(=O)Nc1ccccc1)N/N=C/c1ccncc1 | – | inactive: -9.39% |
| COC(=O)Cn1c(=NC(=O)CSC(C)=O)sc2ccccc21 | inconclusive [inhibitor, partial curve, poor fit] | – |
| CC(C)C[C@H](N)c1nnc(S(=O)(=O)Cc2ccc(F)cc2)o1 | inconclusive [inhibitor, partial curve] | – |
| COc1ccc(C(=O)Nc2ccc(Cl)c(S(=O)(=O)Nc3ccccc3OC)c2)cc1 | active: 12 µM | – |
| COc1ccc2[nH]c3c(NCCC4=CCCCC4)ncnc3c2c1 | active: 4.78 µM | – |
| COc1ccc(NS(=O)(=O)c2cccc(NC(=O)C3=NN(c4ccccc4)C(=O)CC3)c2)cc1 | inconclusive [inhibitor, partial curve] | – |
| Cc1[nH]n(C)c(=O)c1C(=O)c1c(-c2c(Cl)cccc2Cl)noc1C | – | inactive: -5.39% |
| O=S(=O)(Nc1ccc(-c2ccc(N3CCOCC3)nn2)cc1)c1cc(Cl)ccc1Cl | inconclusive [inhibitor, partial curve] | – |
| CN(C)c1ccc(NC(=O)Oc2ccccc2)cc1 | – | inactive: -7.4% |
| O=C(Nc1cccc(Cl)c1)c1cc(N=Nc2ccc([N+](=O)[O-])cc2Cl)ccc1O | active: 0.478 µM | – |
| COc1ccccc1N1CCN(c2nc(C)nc3c2oc2ccccc23)CC1 | active: 26.9 µM | – |
| CCOC(=O)CCS(=O)(=O)c1nc(-c2ccccc2)cc(C(F)(F)F)n1 | inconclusive [inhibitor, partial curve] | – |

| Structure (SMILES) | Potency | activity change, negative = inhibition |
| --- | --- | --- |
| Cc1ccc(C)c(N2CCN(C(=O)CCS(=O)(=O)c3ccc4c(c3)CCN4C(=O)C3CC3)CC2)c1 | inconclusive [inhibitor, partial curve, poor fit] | – |
| CN(c1cccc(NC(=O)c2ccc(Cl)c(S(=O)(=O)Nc3ccccc3)c2)c1)S(C)(=O)=O | inconclusive [inhibitor, partial curve] | – |
| COc1cnc(SCc2ccc(Cl)cc2Cl)nc1Cl | inconclusive [inhibitor, partial curve, poor fit] | – |
| Cc1ccc2nc(NC(=O)C3CCN(S(=O)(=O)c4cc([N+](=O)[O-])ccc4Cl)CC3)sc2c1 | inconclusive [inhibitor, partial curve] | – |
| Cc1cc2cc(CCNC(=O)c3ccc(S(=O)(=O)N4CCCC4)cc3)c(=O)[nH]c2cc1C | inconclusive [inhibitor, partial curve, poor fit] | – |
| CN(Cc1ccco1)S(=O)(=O)c1nnc(NC(=O)c2cccc(Cl)c2)s1 | inconclusive [inhibitor, partial curve] | – |
| O=C(Nc1ncc(S(=O)(=O)c2ccc([N+](=O)[O-])cc2)s1)c1ccccc1F | inconclusive [inhibitor, partial curve] | – |
| O=C(Nc1ncc(S(=O)(=O)c2ccc([N+](=O)[O-])cc2)s1)c1ccc2ccccc2c1 | inconclusive [inhibitor, partial curve] | – |
| COC(=O)CN1C(=O)COc2ccc(S(=O)(=O)N3CCCC3)cc21 | – | inactive: -2.77% |
| COc1ccc(NC(=O)c2ccc3ccccc3n2)cc1S(=O)(=O)Nc1ccccc1Cl | – | inactive: -2.39% |
| O=S(=O)(c1cccs1)N1CCN(CC(O)COc2cc(Cl)ccc2Cl)CC1 (stereo unspecified) | inconclusive [inhibitor, partial curve] | – |
| Cc1cc(C)c(S(=O)(=O)c2c(C)cccc2C)c(Cl)n1 | active: 23.9 µM | – |
| COc1ccc(CCNC2=C(Cl)C(=O)N(CCc3ccc(OC)c(OC)c3)C2=O)cc1OC | active: 21.3 µM | – |
| CCCCCCSc1nsc(NC(C)=O)n1 | inconclusive [inhibitor, partial curve] | – |
| Cc1ccc2oc(=O)c3cnn(CC(=O)N4CCN(c5ccccc5)CC4)c3c2c1 | inconclusive [inhibitor, partial curve] | – |
| Cc1occc1-c1nnc(SCC(=O)Nc2nc(C(C)(C)C)cs2)o1 | inconclusive [inhibitor, partial curve] | – |
| COC(=O)c1ccc(O)c(Sc2cc(C(=O)OC)ccc2O)c1 | inconclusive [inhibitor, partial curve] | – |
| O=C1/C(=C\c2cc([N+](=O)[O-])ccc2O)SC(=S)N1Cc1ccc(Cl)cc1 | active: 2.69 µM | – |
| O=C(Nc1ccn(-c2ccccc2)n1)c1ccc(S(=O)(=O)N2CCCCCC2)cc1 | inconclusive [inhibitor, partial curve] | – |
| CC1CCc2nc(NC(=O)CSc3nc4ccccc4o3)sc2C1 (stereo unspecified) | inconclusive [inhibitor, partial curve, poor fit] | – |
| CCCOc1ccc(-c2cc(C(=O)NCC3CCCO3)c3ccccc3n2)cc1 (stereo unspecified) | inconclusive [inhibitor, partial curve, poor fit] | – |
| O=C(N1CCN=C1SCc1cccnc1)C12CC3CC(CC(C3)C1)C2 | inconclusive [inhibitor, partial curve, poor fit] | – |

| Structure (SMILES) | Potency | activity change, negative = inhibition |
| --- | --- | --- |
| CN1CCN(C2=CC3=CC(=C(C#N)C#N)CCC3CC2)CC1 (stereo unspecified) | inconclusive [inhibitor, partial curve, poor fit] | – |
| c1ccc2c(Cn3nnc4ccccc43)cccc2c1 | inconclusive [inhibitor, partial curve] | – |
| Nc1ncc(Br)cc1S(=O)(=O)Nc1cc(C(F)(F)F)cc(C(F)(F)F)c1 | active: 12 µM | – |
| O=C(Nc1nc(-c2cccs2)cs1)c1cccc(S(=O)(=O)N2CCCCCC2)c1 | – | inactive: -9.77% |
| CCCC(=NC(C)CC)C1=C(O)CC(c2ccccc2)CC1=O (stereo unspecified) | inconclusive [inhibitor, partial curve, poor fit] | – |
| CCn1c(=O)c([N+](=O)[O-])c(Cl)c2ccccc21 | inconclusive [inhibitor, partial curve] | – |
| COC(=O)c1ccc(C2N=C(c3cccs3)CC(c3ccccc3O)N2)cc1 (stereo unspecified) | inconclusive [inhibitor, partial curve] | – |
| COc1ccccc1C(=O)COC(=O)/C=C/c1ccccc1 | inconclusive [inhibitor, partial curve, poor fit] | – |
| Cc1cccc(-c2noc(CN(C)C(=O)c3ccco3)n2)c1 | – | inactive: -14.8% |
| CN(C)/C=C(/C(=O)c1ccc(Cl)cc1)S(=O)(=O)c1ccc(Cl)cc1 | – | inactive: -4.03% |
| COc1cc(NS(=O)(=O)c2ccc(NC(=O)c3ccc(F)cc3)cc2)ncn1 | – | inactive: -8.18% |
| C=CCN1C(=O)/C(=C/c2ccc(OC(C)=O)c(OCC)c2[N+](=O)[O-])SC1=S | active: 7.57 µM | – |
| O=C(COC(=O)c1ccccc1NS(=O)(=O)c1cccs1)NCC12CC3CC(CC(C3)C1)C2 | inconclusive [inhibitor, partial curve, poor fit] | – |
| CN1/C(=C\C(=O)c2oc3ccccc3c2N)C(C)(C)c2ccccc21 | inconclusive [inhibitor, partial curve] | – |
| O=C(Nc1ccc(C(=O)NCc2ccccc2Cl)cc1)C1=CSCCO1 | inconclusive [inhibitor, partial curve, poor fit] | – |
| CNS(=O)(=O)c1cccc(C(=O)OCC(=O)N2c3ccccc3NC(=O)C2(C)C)c1 | inconclusive [inhibitor, partial curve, poor fit] | – |
| NC(=O)NC[C@@H]1CC[C@@H](Cc2ccc(-c3ccccc3)cc2)O1 | inconclusive [inhibitor, partial curve] | – |
| Cc1cc(C)c(-c2csc(NC(=O)/C=C/c3cccs3)n2)c(C)c1 | inconclusive [inhibitor, partial curve, poor fit] | – |
| CC(=O)NC1=C(Nc2ccc(N(C)C)cc2)C(=O)c2ccccc2C1=O | inconclusive [inhibitor, partial curve] | – |
| CC1CN(C(=O)CCn2c(=O)oc3ccccc32)CC(C)O1 (stereo unspecified) | – | inactive: -1.5% |
| COc1cc([N+](=O)[O-])cc(/C=C2/SC(=S)N(Cc3ccccc3)C2=O)c1O | active: 10.7 µM | – |
| COc1ccc(OC)c(NC(=O)c2cc(S(=O)(=O)NCc3ccco3)ccc2F)c1 | inconclusive [inhibitor, partial curve] | – |
